Results taken from the supplement of paper PMC3334620.
Over roughly 33,000 sequences, “E-score (-0.5 to 0.5)” has its median near -0.036; the highest 2% begin near 0.37. The list shows a part of the results.

target: T1, Yer064c (UniProt P40041); assay: PBM E-score (8-mer binding enrichment) (E-score (-0.5 to 0.5)); higher = stronger / more preferred TF binding; most listed sequences are background and not binding sites; conditions: protein concentration: 200 nM; construct: GST-full length
T1 sequence: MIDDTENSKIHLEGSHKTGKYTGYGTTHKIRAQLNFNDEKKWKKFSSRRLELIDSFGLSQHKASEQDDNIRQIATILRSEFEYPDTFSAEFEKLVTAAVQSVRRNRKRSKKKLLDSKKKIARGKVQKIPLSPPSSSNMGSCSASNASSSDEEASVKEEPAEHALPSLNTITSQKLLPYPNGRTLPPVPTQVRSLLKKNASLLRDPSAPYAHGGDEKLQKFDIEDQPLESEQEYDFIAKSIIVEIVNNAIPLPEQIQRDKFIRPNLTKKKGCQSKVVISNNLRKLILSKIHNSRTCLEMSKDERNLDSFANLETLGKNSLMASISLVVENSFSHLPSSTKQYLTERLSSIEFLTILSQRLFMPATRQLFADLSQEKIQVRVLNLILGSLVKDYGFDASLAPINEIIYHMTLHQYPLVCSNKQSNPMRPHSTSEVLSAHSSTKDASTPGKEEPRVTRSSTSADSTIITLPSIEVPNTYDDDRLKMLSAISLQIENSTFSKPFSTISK
Outline: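 Masliner-normalised scans of fluorescent anti-GST signal were the basis for scoring. That signal came from GST-tagged yeast transcription factors applied at about 100-200 nM to double-stranded universal all-10-mer Agilent arrays on fresh or once-stripped slides. Each ungapped eight-base word, pooled with its reverse complement, received an E-score from the Universal PBM Analysis Suite.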

Row | Sequence | PBM E-score
1 | GTCGAGGA | -0.037
2 | AACCACAG | 0.0649
3 | CAGGCCGG | -0.193
4 | GCCGTACC | -0.313
5 | ACGAAATA | -0.00015
6 | CAGTCCGA | 0.204
7 | CCTGCCCA | -0.428
8 | CCGTGGAG | -0.0436
9 | CATGCGAA | -0.0131
10 | CTGTAAAG | -0.0482
11 | CCCTCATC | -0.22
12 | CCTCGCAG | -0.0313
13 | ACGCCAAT | -0.149
14 | ATTGTGAG | 0.2
15 | AATAGACG | -0.219
16 | AAGCCCTC | -0.262
17 | CCGCGGGC | -0.0616
18 | CTAAATGA | 0.151
19 | TCATAAAA | 0.325
20 | ATCAAGCC | 0.172
21 | AAAGTGGT | -0.00593
22 | ACACATAC | 0.0851

Row | Sequence | PBM E-score
23 | GCTCTTCC | -0.163
24 | AAACCGAC | -0.031
25 | CAAAACGG | -0.0529
26 | ATCTCTGA | 0.0942
27 | CCTAACCG | -0.105
28 | CGTGCCGC | -0.172
29 | ACACTGAG | 0.066
30 | ATTCATCG | 0.205
31 | ACTTGAAG | 0.148
32 | GCAAACTA | -0.0524
33 | CAGAAACA | -0.119
34 | AATCCGAT | 0.199
35 | CCAGTGTC | -0.0118
36 | GGACTGAA | 0.109
37 | AGCGGTTC | -0.119
38 | ACACCTAA | 0.0546
39 | ACGGAATG | -0.162
40 | ACAGATGA | 0.0984
41 | AACACCCT | 0.0248
42 | AAACCAGA | 0.055
43 | ACGGGGAA | -0.0407
44 | AGCGATGC | -0.322

Row | Sequence | PBM E-score
45 | ATTGGTAA | -0.0186
46 | GCGTGGCC | -0.336
47 | AGAATCAT | 0.44
48 | ACAAGTGC | -0.0107
49 | CGGCCTTA | -0.0403
50 | CTCGAGCA | 0.0568
51 | CTTCATCC | -0.219
52 | TTAATCAA | 0.371
53 | CCGAGACC | -0.217
54 | GTACTATA | 0.0662
55 | CAGGAAAC | 0.082
56 | AACTTACG | -0.123
57 | CATCACCC | -0.0525
58 | GGAGCAAC | -0.186
59 | ACAGCGCT | -0.0964
60 | AAGTTGAC | 0.268
61 | AGCGAAGC | -0.183
62 | GTGAAAAC | -0.151
63 | CAAAAGCA | -0.0906
64 | GAACCGAA | 0.0189
65 | GGGAAACC | -0.0566
66 | AAATCCGG | -0.0403

Row | Sequence | PBM E-score
67 | CGGGGCTC | -0.306
68 | AGGTAAAT | -0.00442
69 | GGTGATAA | -0.111
70 | CGTTAATC | 0.349
71 | CGAGGGGA | -0.132
72 | ACCAACCT | -0.158
73 | CTAAACAA | 0.0295
74 | ATCCCCCG | -0.223
75 | GCTATTAC | -0.0358
76 | GGATGCCA | -0.13
77 | GGTCAGTA | -0.0314
78 | GGGAATAC | -0.172
79 | TAGCACTA | -0.0183
80 | ACAGTCTA | -0.0414
81 | CCACTTGA | -0.00241
82 | CACTAGAG | 0.0358
83 | AGTCGCGG | 0.365
84 | TGCGGAAA | -0.173
85 | ACGTTACA | 0.151
86 | CGGGCTAG | -0.217
87 | GGTGGAAC | -0.257
88 | TCTCGAAA | 0.0754

Row | Sequence | PBM E-score
89 | AACAGCGG | -0.176
90 | AGCTTTGC | -0.272
91 | ACGAGAAA | 0.123
92 | AAGTCCCG | -0.228
93 | AAATTGTC | -0.169
94 | AAGTTAAT | 0.284
95 | ACATATCC | -0.11
96 | ACTGTTCC | 0.113
97 | TAGATGCA | -0.109
98 | GAGCCTCC | 0.054
99 | CCCTTCCA | -0.222
100 | GATTGAAC | 0.196
101 | ACGATATC | 0.0808
102 | ACCCAACT | 0.0803
103 | CAATAAAC | 0.0151
104 | AATTGTTA | 0.0306
105 | AATGCTCG | -0.0768
106 | CAAAAACA | -0.091
107 | AACCCCGC | -0.154
108 | CCAGCCTA | -0.0998
109 | CCGTGTTC | 0.0684
